Reference: the supplement of paper PMC4967469
The IC50 comes from the fitted curve, where viability falls to half of the control; a fit beyond the top or the lowest dose is shown as a bound at that dose. AUC, from the same fit, is the share of area under the viability curve across the 256-fold dose range: 1 means no effect, lower means more sensitive. For some assays here: The top dose, if marked as inferred, comes from the curve model; the source does not state it.

What was measured:
Assay in all cases: Viability of human cancer cell lines after 72 h of drug (GDSC screen)
HG-6-64-1 = compound: CCN1CCN(Cc2ccc(NC(=O)c3ccc(C)c(/C=C/c4cnc5[nH]ccc5c4OC)c3)cc2C(F)(F)F)CC1 [HG-6-64-1]; details: top dose 5.12 µM; top dose inferred
Protocol: (§1)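 Human cancer cell lines in 384-well plates, medium with 10% serum, drug for 72 h over a 256-fold dose range (nine 2-fold or five 4-fold steps up to the top dose). Adherent lines were fixed and stained with the nucleic acid dye Syto60, suspension lines read with resazurin; signal relative to control wells, capped at 0 and 100%. One two-parameter sigmoid per drug and line, fitted in a mixed model over all curves with the slope shared within a line.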

KIN001-244 = compound: O=C(NC(COc1ccc2[nH]c(=O)[nH]c2c1)c1ccccc1)c1cccn(Cc2ccc(F)c(F)c2)c1=O [KIN001-244]; details: top dose 20 µM; top dose inferred
Protocol: as §1

Trametinib = compound: CC(=O)Nc1cccc(-n2c(=O)n(C3CC3)c(=O)c3c(Nc4ccc(I)cc4F)n(C)c(=O)c(C)c32)c1 [Trametinib]; details: top dose 1 µM
Protocol: as §1

AV-951 = compound: COc1cc2nccc(Oc3ccc(NC(=O)Nc4cc(C)on4)c(Cl)c3)c2cc1OC [AV-951]; details: top dose 0.128 µM; top dose inferred
Protocol: as §1

I-BET-762 = compound: CCNC(=O)C[C@@H]1N=C(c2ccc(Cl)cc2)c2cc(OC)ccc2-n2c(C)nnc21 [I-BET-762]; details: top dose 20 µM; top dose inferred
Protocol: as §1

PF-4708671 = compound: CCc1cncnc1N1CCN(Cc2nc3ccc(C(F)(F)F)cc3[nH]2)CC1 [PF-4708671]; details: top dose 10 µM; top dose inferred
Protocol: as §1

Cell Line	AUC (HG-6-64-1)	IC50 (HG-6-64-1)	AUC (KIN001-244)	IC50 (KIN001-244)	AUC (Trametinib)	IC50 (Trametinib)	AUC (AV-951)	IC50 (AV-951)	AUC (I-BET-762)	IC50 (I-BET-762)	AUC (PF-4708671)	IC50 (PF-4708671)
PCI-6A (head and neck, adherent)	0.652	0.834 µM	0.777	7.86 µM	0.868	0.884 µM	0.982	> 0.128 µM	0.767	7.27 µM	0.945	> 10 µM
PCI-15A (head and neck, adherent)	0.758	1.79 µM	0.973	> 20 µM	0.459	0.0482 µM	0.987	> 0.128 µM	0.985	> 20 µM	0.866	9.1 µM
PCI-30 (head and neck, adherent)	0.857	> 5.12 µM	0.938	> 20 µM	0.849	> 1 µM	0.982	> 0.128 µM	0.981	> 20 µM	0.976	> 10 µM
PCI-38 (head and neck, adherent)	0.785	2.2 µM	0.896	> 20 µM	0.456	0.0473 µM	0.985	> 0.128 µM	0.946	> 20 µM	0.917	> 10 µM
PE/CA-PJ15 (head and neck, adherent)	0.927	> 5.12 µM	0.938	> 20 µM	0.287	0.0148 µM	0.985	> 0.128 µM	0.986	> 20 µM	0.959	> 10 µM
PL4 (pancreas, adherent)	0.975	> 5.12 µM	0.955	> 20 µM	0.194	0.0074 µM	0.983	> 0.128 µM	0.987	> 20 µM	0.968	> 10 µM
PL18 (pancreas, adherent)	0.869	4.64 µM	0.932	> 20 µM	0.083	< 0.00391 µM	0.986	> 0.128 µM	0.78	8.17 µM	0.901	> 10 µM
RCM-1 (large intestine, adherent)	0.957	> 5.12 µM	0.979	> 20 µM	0.268	0.0116 µM	0.984	> 0.128 µM	0.985	> 20 µM	0.926	> 10 µM
RD (rhabdomyosarcoma, adherent)	0.761	1.99 µM	0.817	12.5 µM	0.204	0.00753 µM	0.985	> 0.128 µM	0.83	14.2 µM	0.968	> 10 µM
RERF-GC-1B (stomach, adherent)	0.647	0.862 µM	0.835	15.4 µM	0.651	0.173 µM	0.968	> 0.128 µM	0.933	> 20 µM	0.973	> 10 µM
RERF-LC-KJ (lung adenocarcinoma, adherent)	0.955	> 5.12 µM	0.923	> 20 µM	0.943	> 1 µM	0.987	> 0.128 µM	0.967	> 20 µM	0.987	> 10 µM
RERF-LC-MS (lung adenocarcinoma, adherent)	0.937	> 5.12 µM	0.894	> 20 µM	0.587	0.109 µM	0.985	> 0.128 µM	0.977	> 20 µM	0.905	> 10 µM
RERF-LC-Sq1 (lung squamous cell carcinoma, adherent)	0.97	> 5.12 µM	0.911	> 20 µM	0.637	–	0.97	> 0.128 µM	0.968	> 20 µM	0.884	> 10 µM
RKN (ovary, adherent)	0.922	> 5.12 µM	0.877	> 20 µM	0.157	0.00509 µM	0.981	> 0.128 µM	0.904	> 20 µM	0.979	> 10 µM
RO82-W-1 (thyroid, adherent)	0.765	2.39 µM	0.885	> 20 µM	0.589	0.117 µM	0.976	> 0.128 µM	0.953	> 20 µM	0.951	> 10 µM
RPMI-2650 (head and neck, adherent)	0.442	0.22 µM	0.851	17.3 µM	0.922	> 1 µM	0.979	> 0.128 µM	0.92	> 20 µM	0.976	> 10 µM
RT4 (bladder, adherent)	0.706	1.26 µM	0.857	17.7 µM	0.622	0.138 µM	0.981	> 0.128 µM	0.935	> 20 µM	0.986	> 10 µM
RT-112 (bladder, adherent)	0.593	0.586 µM	0.825	13.2 µM	0.783	0.456 µM	0.97	> 0.128 µM	0.982	> 20 µM	0.977	> 10 µM
RVH-421 (melanoma, adherent)	0.752	2.27 µM	0.704	5.87 µM	0.398	0.0296 µM	0.968	> 0.128 µM	0.868	> 20 µM	0.964	> 10 µM
SAS (head and neck, adherent)	0.924	> 5.12 µM	0.845	16.9 µM	0.45	0.045 µM	0.984	> 0.128 µM	0.91	> 20 µM	0.887	> 10 µM
SAT (head and neck, adherent)	0.864	> 5.12 µM	0.866	> 20 µM	0.4	0.0285 µM	0.973	> 0.128 µM	0.875	> 20 µM	0.818	> 10 µM
SBC-5 (small cell lung carcinoma, adherent)	0.854	2.92 µM	0.963	> 20 µM	0.947	> 1 µM	0.993	> 0.128 µM	0.993	> 20 µM	0.953	> 10 µM
